Laboratory results: US11807625B2, “Capsid inhibitors for the prevention of HIV” (Gilead Sciences, Inc., priority 2019, dated 2023)
“And” between values parts separate entries of the source, which are not always exact repeats. Identical values can stand only once. The source gives many values for each of these; only a part stands here.

Experiment: PK of compound of Formula (Ia) after single subcutaneous dose of solution formulations in Wistar Han rats
Type: in vivo
Conditions: SC 50 mg/kg
Method: Formulations containing the compound of Formula (Ia), or a pharmaceutically acceptable salt thereof, were prepared as solutions and optionally administered subcutaneously or intramuscularly to rats, rabbits, and/or dogs.
A solution of about 400 mg/mL of the compound of Formula (Ia) having 19.14 w/w % water, 40.66 w/w % PEG 300, 35.20 w/w % of a sodium salt of a compound of Formula (Ia), and 5.00% ethanol was prepared. The solution was administered subcutaneously to male Wistar Han rats at a dose level of about 50 mg/kg and dose volume of 0.125 mL/kg and the pharmacokinetic (PK) profile was determined.
A solution of about 500 mg/mL of the compound of Formula (Ia) having 16.64 w/w % water, 35.36 w/w % PEG 300, 43.00 w/w % of a sodium salt of a compound of Formula (Ia), and 5.00% ethanol was prepared. The solution was administered subcutaneously to male Wistar Han rats at a dose level of about 50 mg/kg and dose volume of 0.1 mL/kg and the pharmacokinetic (PK) profile was determined.
A solution of about 400 mg/mL of the compound of Formula (Ia) having 17.00 w/w % water, 36.40 w/w % PEG 300, 35.20 w/w % of a sodium salt of a compound of Formula (Ia), 5.00 w/w % ethanol, and 6.40 w/w % poloxamer 188 was prepared. The solution was administered subcutaneously to male beagle dogs at a dose level of about 12 mg/kg and male Wistar Han rats at a dose level of about 50 mg/kg. The pharmacokinetic profiles were determined, and the results for dogs are summarized in Table and Table, while the results for rats are summarized in Table and Table below.
A solution of about 500 mg/mL of the compound of Formula (Ia) having 14.06 w/w % water, 30.12 w/w % PEG 300, […] of a sodium salt of a compound of Formula (Ia), 5.00 w/w % ethanol, and 6.40 w/w % poloxamer 188 was prepared. The solution was administered subcutaneously to male beagle dogs at a dose level of about 12 mg/kg and male Wistar Han rats at a dose level of about 50 mg/kg. The pharmacokinetic profiles were determined, and the results for dogs are summarized in Table and Table, while the results for rats are summarized in Table and Table below.
A solution of about 300 mg/mL of the compound of Formula (Ia) having 23.33 w/w % water, 48.99 w/w % PEG 300, 26.47 w/w % of a sodium salt of a compound of Formula (Ia), and 1.21 w/w % poloxamer 188 was prepared. The solution was administered subcutaneously to male beagle dogs at a dose level of about 6 mg/kg and male Wistar Han rats at a dose level of about 50 mg/kg. The pharmacokinetic profiles were determined, and the results for dogs are summarized in Table and Table, while the results for rats are summarized in Table and Table below.
A solution of about 400 mg/mL of the compound of Formula (Ia) having 18.80 w/w % water, 40.25 w/w % PEG 300, 34.38 w/w % of a sodium salt of a compound of Formula (Ia), 5.00 w/w % ethanol, and 1.57 w/w % poloxamer 188 was prepared. The solution was administered subcutaneously to male beagle dogs at a dose level of about 12 mg/kg and male Wistar Han rats at a dose level of about 50 mg/kg. The pharmacokinetic profiles were determined, and the results for dogs are summarized in Table and Table, while the results for rats are summarized in Table and Table below.
A solution of about 500 mg/mL of the compound of Formula (Ia) having 16.29 w/w % water, 34.88 w/w % PEG 300, 41.92 w/w % of a sodium salt of a compound of Formula (Ia), 5.00 w/w % ethanol, and 1.91 w/w % poloxamer 188 was prepared. The solution was administered subcutaneously to male beagle dogs at a dose level of about 12 mg/kg and male Wistar Han rats at a dose level of about 50 mg/kg. The pharmacokinetic profiles were determined, and the results for dogs are summarized in Table and Table, while the results for rats are summarized in Table and Table below.
A solution of about 400 mg/mL of the compound of Formula (Ia) having 20.90 w/w % water, 44.72 w/w % PEG 300, and 34.38 w/w % of a sodium salt of a compound of Formula (Ia) was prepared. […]

Q: With `CC(C)(C#Cc1ccc(-c2ccc(Cl)c3c(NS(C)(=O)=O)nn(CC(F)(F)F)c23)c([C@H](Cc2cc(F)cc(F)c2)NC(=O)Cn2nc(C(F)(F)F)c3c2C(F)(F)[C@@H]2C[C@H]32)n1)S(C)(=O)=O` [compound of Formula (Ia)] as the compound, how does the Plasma concentration (5376 h, individual rats, solution U, 500 mg/mL) read?
A: 30.0 nM and 66.5 nM and 26.3 nM and 33.2 nM and 38.7 nM

Q: And the Plasma concentration (6048 h, individual rats, solution S, 500 mg/mL)?
A: 32.6 nM and 75.5 nM and 27.0 nM

Q: And the Plasma concentration (6048 h, individual rats, solution T, 400 mg/mL)?
A: 14.9 nM and 40.8 nM and 16.9 nM and 43.4 nM

Q: What about the Plasma concentration (6048 h, individual rats, solution U, 500 mg/mL) of the same compound?
A: 30.8 nM and 60.0 nM and 18.5 nM and 30.4 nM and 41.5 nM

Q: What about the Plasma concentration (6720 h, individual rats, solution S, 500 mg/mL) of the same compound?
A: 24.0 nM and 64.9 nM and 22.0 nM

Q: What about the Plasma concentration (6720 h, individual rats, solution T, 400 mg/mL) of the same compound?
A: 10.5 nM and 33.3 nM and 8.92 nM and 33.4 nM

Q: What about the Plasma concentration (6720 h, individual rats, solution U, 500 mg/mL) of the same compound?
A: 22.7 nM and 49.9 nM and 13.5 nM and 22.8 nM and 23.8 nM

Q: And the Plasma concentration (7392 h, individual rats, solution S, 500 mg/mL)?
A: 13.8 nM and 56.8 nM and 17.5 nM

Q: And the Plasma concentration (8064 h, individual rats, solution S, 500 mg/mL)?
A: 10.4 nM and 49.5 nM and 14.5 nM

Q: And the Plasma concentration (Wistar Han rats, 400 mg/mL solution AA (6.25% poloxamer 188), 1.00 h, animals #1-#4)?
A: 36.7 nM and 45.6 nM and 32.4 nM

Q: And the Plasma concentration (Wistar Han rats, 400 mg/mL solution AA (6.25% poloxamer 188), 3.00 h, animals #1-#4)?
A: 61.1 nM and 94.5 nM and 54.3 nM

Q: What about the Plasma concentration (Wistar Han rats, 400 mg/mL solution AA (6.25% poloxamer 188), 8.00 h, animals #1-#4) of the same compound?
A: 102 nM and 159 nM and 119 nM

Q: And the Plasma concentration (Wistar Han rats, 400 mg/mL solution AA (6.25% poloxamer 188), 24.0 h, animals #1-#4)?
A: 163 nM and 281 nM and 228 nM

Q: What about the Plasma concentration (Wistar Han rats, 400 mg/mL solution AA (6.25% poloxamer 188), 48.0 h, animals #1-#4) of the same compound?
A: 174 nM and 310 nM and 246 nM

Q: And the Plasma concentration (Wistar Han rats, 400 mg/mL solution AA (6.25% poloxamer 188), 72.0 h, animals #1-#4)?
A: 144 nM and 267 nM and 265 nM

Q: What about the Plasma concentration (Wistar Han rats, 400 mg/mL solution AA (6.25% poloxamer 188), 96.0 h, animals #1-#4) of the same compound?
A: 130 nM and 238 nM and 226 nM

Q: And the Plasma concentration (Wistar Han rats, 400 mg/mL solution AA (6.25% poloxamer 188), 672 h, animals #1-#4)?
A: 93.1 nM and 141 nM and 105 nM

Q: What about the Plasma concentration (Wistar Han rats, 400 mg/mL solution AA (6.25% poloxamer 188), 840 h, animals #1-#4) of the same compound?
A: 92.9 nM and 122 nM and 87.7 nM

Q: And the Plasma concentration (Wistar Han rats, 400 mg/mL solution AA (6.25% poloxamer 188), 1008 h, animals #1-#4)?
A: 92.1 nM and 120 nM and 67.1 nM

Q: And the Plasma concentration (Wistar Han rats, 400 mg/mL solution AA (6.25% poloxamer 188), 1344 h, animals #1-#4)?
A: 79.3 nM and 88.8 nM and 47.2 nM

Q: What about the Plasma concentration (Wistar Han rats, 400 mg/mL solution W (5.00% ethanol, 1.57% poloxamer 188), 24.0 h, animals #1-#3) of the same compound?
A: 90.1 nM and 144 nM

Q: And the Plasma concentration (Wistar Han rats, 400 mg/mL solution W (5.00% ethanol, 1.57% poloxamer 188), 48.0 h, animals #1-#3)?
A: 127 nM and 201 nM

Q: And the Plasma concentration (Wistar Han rats, 400 mg/mL solution W (5.00% ethanol, 1.57% poloxamer 188), 72.0 h, animals #1-#3)?
A: 169 nM and 176 nM

Q: What about the Plasma concentration (Wistar Han rats, 400 mg/mL solution W (5.00% ethanol, 1.57% poloxamer 188), 96.0 h, animals #1-#3) of the same compound?
A: 150 nM and 164 nM

Q: And the Plasma concentration (Wistar Han rats, 400 mg/mL solution W (5.00% ethanol, 1.57% poloxamer 188), 168 h, animals #1-#3)?
A: 121 nM and 154 nM

Q: What about the Plasma concentration (Wistar Han rats, 400 mg/mL solution W (5.00% ethanol, 1.57% poloxamer 188), 336 h, animals #1-#3) of the same compound?
A: 166 nM and 224 nM

Q: What about the Plasma concentration (Wistar Han rats, 400 mg/mL solution W (5.00% ethanol, 1.57% poloxamer 188), 504 h, animals #1-#3) of the same compound?
A: 228 nM and 321 nM

Q: What about the Plasma concentration (Wistar Han rats, 400 mg/mL solution W (5.00% ethanol, 1.57% poloxamer 188), 672 h, animals #1-#3) of the same compound?
A: 239 nM and 328 nM

Q: And the Plasma concentration (Wistar Han rats, 400 mg/mL solution W (5.00% ethanol, 1.57% poloxamer 188), 840 h, animals #1-#3)?
A: 283 nM and 313 nM

Q: What about the Plasma concentration (Wistar Han rats, 400 mg/mL solution W (5.00% ethanol, 1.57% poloxamer 188), 1008 h, animals #1-#3) of the same compound?
A: 239 nM and 302 nM

Q: What about the Plasma concentration (Wistar Han rats, 400 mg/mL solution W (5.00% ethanol, 1.57% poloxamer 188), 1344 h, animals #1-#3) of the same compound?
A: 284 nM and 370 nM

Q: And the Plasma concentration (Wistar Han rats, 400 mg/mL solution W (5.00% ethanol, 1.57% poloxamer 188), 1680 h, animals #1-#3)?
A: 242 nM and 335 nM

Q: And the Plasma concentration (Wistar Han rats, 400 mg/mL solution W (5.00% ethanol, 1.57% poloxamer 188), 2016 h, animals #1-#3)?
A: 193 nM and 247 nM

Q: What about the Plasma concentration (Wistar Han rats, 400 mg/mL solution W (5.00% ethanol, 1.57% poloxamer 188), 2352 h, animals #1-#3) of the same compound?
A: 144 nM and 179 nM

Q: What about the Plasma concentration (Wistar Han rats, 400 mg/mL solution W (5.00% ethanol, 1.57% poloxamer 188), 2688 h, animals #1-#3) of the same compound?
A: 135 nM and 214 nM

Q: And the Plasma concentration (Wistar Han rats, 400 mg/mL solution W (5.00% ethanol, 1.57% poloxamer 188), 3024 h, animals #1-#3)?
A: 106 nM and 143 nM

Q: And the Plasma concentration (Wistar Han rats, 400 mg/mL solution W (5.00% ethanol, 1.57% poloxamer 188), 3360 h, animals #1-#3)?
A: 90.5 nM and 144 nM

Q: And the Plasma concentration (Wistar Han rats, 400 mg/mL solution W (5.00% ethanol, 1.57% poloxamer 188), 3696 h, animals #1-#3)?
A: 76.3 nM and 112 nM
